# Reference: US5459237A, “Peptide compositions and uses therefor” (priority 1992, dated 1995)
# Not every detail of the peptide structures is certain; ends, links or a residue may be inferred. Square brackets hold non-standard residues; d marks the D form. Peptide text beside a SMILES is read from it. hArg = N=C(N)NCCCC[C@H](N)C(=O)O; Cha = N[C@@H](CC1CCCCC1)C(=O)O; Nle = CCCC[C@H](N)C(=O)O; Orn = NCCC[C@H](N)C(=O)O; Nva = CCC[C@H](N)C(=O)O
# How the values were obtained:
# [1] = test system: S. aureus ATCC 25923; test: Antibacterial assay, broth microdilution MIC; assay type: cell-based; conditions: Mueller Hinton broth, 16-20 hours at 37° C., lowest concentration producing a clear well
# [2] = test system: E. coli ATCC 25922; test: Antibacterial assay, broth microdilution MIC; assay type: cell-based; conditions: Mueller Hinton broth, 16-20 hours at 37° C., lowest concentration producing a clear well
Compound,MIC (S) [1],MIC (E) [2]
CC[C@@H](C)[C@@H](NC(=O)[C@H](N)CCCCN)C(=O)N[C@H](C)C(=O)NCC(=O)N[C@H](CCCCN)C(=O)N[C@@H](C(=O)N[C@H](C)C(=O)N[C@H](CCCCN)C(=O)N[C@@H](C(=O)N[C@H](C)C(=O)NCC(=O)N[C@H](CCCCN)C(=O)N[C@@H](C(=O)N[C@H](C)C(=O)N[C@H](CCCCN)C(=O)N[C@@H](C(=O)N[C@H](C)C(=O)NCC(=O)N[C@H](CCCCN)C(=O)N[C@@H](C(=O)N[C@H](C)C(N)=O)[C@H](C)CC)[C@H](C)CC)[C@H](C)CC)[C@H](C)CC)[C@H](C)CC [Peptide (1A)] (H-[dK][dI][dA]G[dK][dI][dA][dK][dI][dA]G[dK][dI][dA][dK][dI][dA]G[dK][dI][dA]-NH2),"2,4 μg/ml",2 µg/mL
"CC[C@H](C)[C@H](NC(=O)[C@H](CCCN)NC(=O)CNC(=O)[C@H](C)NC(=O)[C@@H](NC(=O)[C@H](CCCCN)NC(=O)[C@H](C)NC(=O)[C@@H](NC(=O)[C@H](CCCN)NC(=O)CNC(=O)[C@H](C)NC(=O)[C@@H](NC(=O)[C@H](CCCCN)NC(=O)[C@H](C)NC(=O)[C@@H](NC(=O)[C@H](CCCN)NC(=O)CNC(=O)[C@H](C)NC(=O)[C@@H](NC(=O)[C@@H](N)CCCCN)[C@@H](C)CC)[C@@H](C)CC)[C@@H](C)CC)[C@@H](C)CC)[C@@H](C)CC)C(=O)N[C@@H](C)C(N)=O [Peptide (SEQ ID NO:14), (Lys Ile Ala Gly Orn Ile Ala)3 --NH2] (H-KIAG[Orn]IAKIAG[Orn]IAKIAG[Orn]IA-NH2)",32 µg/mL,16 µg/mL
"CC[C@H](C)[C@H](NC(=O)[C@H](CCCCN)NC(=O)CNC(=O)[C@H](C)NC(=O)[C@@H](NC(=O)[C@H](CCCN)NC(=O)[C@H](C)NC(=O)[C@@H](NC(=O)[C@H](CCCCN)NC(=O)CNC(=O)[C@H](C)NC(=O)[C@@H](NC(=O)[C@H](CCCN)NC(=O)[C@H](C)NC(=O)[C@@H](NC(=O)[C@H](CCCCN)NC(=O)CNC(=O)[C@H](C)NC(=O)[C@@H](NC(=O)[C@@H](N)CCCN)[C@@H](C)CC)[C@@H](C)CC)[C@@H](C)CC)[C@@H](C)CC)[C@@H](C)CC)C(=O)N[C@@H](C)C(N)=O [Peptide (SEQ ID NO:16), (Orn Ile Ala Gly Lys Ile Ala)3 --NH2] (H-[Orn]IAGKIA[Orn]IAGKIA[Orn]IAGKIA-NH2)",16 µg/mL,4 µg/mL
"CCCC[C@H](NC(=O)[C@H](CCCCN)NC(=O)CNC(=O)[C@H](C)NC(=O)[C@H](CCCC)NC(=O)[C@H](CCCCN)NC(=O)[C@H](C)NC(=O)[C@H](CCCC)NC(=O)[C@H](CCCCN)NC(=O)CNC(=O)[C@H](C)NC(=O)[C@H](CCCC)NC(=O)[C@H](CCCCN)NC(=O)[C@H](C)NC(=O)[C@H](CCCC)NC(=O)[C@H](CCCCN)NC(=O)CNC(=O)[C@H](C)NC(=O)[C@H](CCCC)NC(=O)[C@@H](N)CCCCN)C(=O)N[C@@H](C)C(N)=O [Peptide (SEQ ID NO:18), (Lys Nle Ala Gly Lys Nle Ala)3 --NH2] (H-K[Nle]AGK[Nle]AK[Nle]AGK[Nle]AK[Nle]AGK[Nle]A-NH2)","4,8 μg/ml",4 µg/mL
"CCCC[C@H](NC(=O)[C@H](CCCCN)NC(=O)[C@H](C)NC(=O)[C@@H](NC(=O)[C@H](CCCCN)NC(=O)CNC(=O)[C@H](C)NC(=O)[C@H](CCCC)NC(=O)[C@H](CCCCN)NC(=O)[C@H](C)NC(=O)[C@@H](NC(=O)[C@H](CCCCN)NC(=O)CNC(=O)[C@H](C)NC(=O)[C@H](CCCC)NC(=O)[C@@H](N)CCCCN)[C@@H](C)CC)[C@@H](C)CC)C(=O)N[C@@H](C)C(=O)NCC(=O)N[C@@H](CCCCN)C(=O)N[C@H](C(=O)N[C@@H](C)C(N)=O)[C@@H](C)CC [Peptide (SEQ ID NO:19), (Lys Nle Ala Gly Lys Ile Ala)3 --NH2] (H-K[Nle]AGKIAK[Nle]AGKIAK[Nle]AGKIA-NH2)",16 µg/mL,"4,8 μg/ml"
"CCCC[C@H](NC(=O)[C@H](CCCCN)NC(=O)CNC(=O)[C@H](C)NC(=O)[C@@H](NC(=O)[C@H](CCCCN)NC(=O)[C@H](C)NC(=O)[C@H](CCCC)NC(=O)[C@H](CCCCN)NC(=O)CNC(=O)[C@H](C)NC(=O)[C@@H](NC(=O)[C@H](CCCCN)NC(=O)[C@H](C)NC(=O)[C@H](CCCC)NC(=O)[C@H](CCCCN)NC(=O)CNC(=O)[C@H](C)NC(=O)[C@@H](NC(=O)[C@@H](N)CCCCN)[C@@H](C)CC)[C@@H](C)CC)[C@@H](C)CC)C(=O)N[C@@H](C)C(N)=O [Peptide (SEQ ID NO:20), (Lys Ile Ala Gly Lys Nle Ala)3 --NH2] (H-KIAGK[Nle]AKIAGK[Nle]AKIAGK[Nle]A-NH2)",8 µg/mL,"2,4 μg/ml"
"CCC[C@H](NC(=O)[C@H](CCCCN)NC(=O)CNC(=O)[C@H](C)NC(=O)[C@H](CCC)NC(=O)[C@H](CCCCN)NC(=O)[C@H](C)NC(=O)[C@H](CCC)NC(=O)[C@H](CCCCN)NC(=O)CNC(=O)[C@H](C)NC(=O)[C@H](CCC)NC(=O)[C@H](CCCCN)NC(=O)[C@H](C)NC(=O)[C@H](CCC)NC(=O)[C@H](CCCCN)NC(=O)CNC(=O)[C@H](C)NC(=O)[C@H](CCC)NC(=O)[C@@H](N)CCCCN)C(=O)N[C@@H](C)C(N)=O [Peptide (SEQ ID NO:21), (Lys Nva Ala Gly Lys Nva Ala)3 --NH2] (H-K[Nva]AGK[Nva]AK[Nva]AGK[Nva]AK[Nva]AGK[Nva]A-NH2)","128,256 μg/ml",32 µg/mL
"CCC[C@H](NC(=O)[C@H](CCCCN)NC(=O)[C@H](C)NC(=O)[C@@H](NC(=O)[C@H](CCCCN)NC(=O)CNC(=O)[C@H](C)NC(=O)[C@H](CCC)NC(=O)[C@H](CCCCN)NC(=O)[C@H](C)NC(=O)[C@@H](NC(=O)[C@H](CCCCN)NC(=O)CNC(=O)[C@H](C)NC(=O)[C@H](CCC)NC(=O)[C@@H](N)CCCCN)[C@@H](C)CC)[C@@H](C)CC)C(=O)N[C@@H](C)C(=O)NCC(=O)N[C@@H](CCCCN)C(=O)N[C@H](C(=O)N[C@@H](C)C(N)=O)[C@@H](C)CC [Peptide (SEQ ID NO:22), (Lys Nva Ala Gly Lys Ile Ala)3 --NH2] (H-K[Nva]AGKIAK[Nva]AGKIAK[Nva]AGKIA-NH2)",128 µg/mL,8 µg/mL
"CCC[C@H](NC(=O)[C@H](CCCCN)NC(=O)CNC(=O)[C@H](C)NC(=O)[C@@H](NC(=O)[C@H](CCCCN)NC(=O)[C@H](C)NC(=O)[C@H](CCC)NC(=O)[C@H](CCCCN)NC(=O)CNC(=O)[C@H](C)NC(=O)[C@@H](NC(=O)[C@H](CCCCN)NC(=O)[C@H](C)NC(=O)[C@H](CCC)NC(=O)[C@H](CCCCN)NC(=O)CNC(=O)[C@H](C)NC(=O)[C@@H](NC(=O)[C@@H](N)CCCCN)[C@@H](C)CC)[C@@H](C)CC)[C@@H](C)CC)C(=O)N[C@@H](C)C(N)=O [Peptide (SEQ ID NO:25), (Lys Ile Ala Gly Lys Nva Ala)3 --NH2] (H-KIAGK[Nva]AKIAGK[Nva]AKIAGK[Nva]A-NH2)",128 µg/mL,16 µg/mL
"CC[C@H](C)[C@H](NC(=O)[C@H](CCCN)NC(=O)CNC(=O)[C@H](C)NC(=O)[C@@H](NC(=O)[C@H](CCCN)NC(=O)[C@H](C)NC(=O)[C@@H](NC(=O)[C@H](CCCN)NC(=O)CNC(=O)[C@H](C)NC(=O)[C@@H](NC(=O)[C@H](CCCN)NC(=O)[C@H](C)NC(=O)[C@@H](NC(=O)[C@H](CCCN)NC(=O)CNC(=O)[C@H](C)NC(=O)[C@@H](NC(=O)[C@@H](N)CCCN)[C@@H](C)CC)[C@@H](C)CC)[C@@H](C)CC)[C@@H](C)CC)[C@@H](C)CC)C(=O)N[C@@H](C)C(N)=O [Peptide (SEQ ID NO:34), (Orn Ile Ala Gly Orn Ile Ala)3 --NH2] (H-[Orn]IAG[Orn]IA[Orn]IAG[Orn]IA[Orn]IAG[Orn]IA-NH2)",32 µg/mL,8 µg/mL
"CC[C@H](C)[C@H](NC(=O)[C@H](CCCCN)NC(=O)CNC(=O)[C@H](C)NC(=O)[C@H](CC1CCCCC1)NC(=O)[C@H](CCCCN)NC(=O)[C@H](C)NC(=O)[C@@H](NC(=O)[C@H](CCCCN)NC(=O)CNC(=O)[C@H](C)NC(=O)[C@H](CC1CCCCC1)NC(=O)[C@H](CCCCN)NC(=O)[C@H](C)NC(=O)[C@@H](NC(=O)[C@H](CCCCN)NC(=O)CNC(=O)[C@H](C)NC(=O)[C@H](CC1CCCCC1)NC(=O)[C@@H](N)CCCCN)[C@@H](C)CC)[C@@H](C)CC)C(=O)N[C@@H](C)C(N)=O [Peptide (SEQ ID NO:37), (Lys Cha Ala Gly Lys Ile Ala)3 --NH2] (H-K[Cha]AGKIAK[Cha]AGKIAK[Cha]AGKIA-NH2)","4,8 μg/ml","2,4 μg/ml"
"CCCC[C@H](NC(=O)[C@H](CCCCN)NC(=O)CNC(=O)[C@H](C)NC(=O)[C@@H](NC(=O)[C@H](CCCCN)NC(=O)[C@H](C)NC(=O)[C@H](CCCC)NC(=O)[C@H](CCCCN)NC(=O)CNC(=O)[C@H](C)NC(=O)[C@@H](NC(=O)[C@H](CCCCN)NC(=O)[C@H](C)NC(=O)[C@H](CCCC)NC(=O)[C@@H](N)CCCCN)[C@@H](C)CC)[C@@H](C)CC)C(=O)N[C@@H](C)C(=O)N[C@@H](CCCCN)C(=O)N[C@H](C(=O)N[C@@H](C)C(=O)NCC(N)=O)[C@@H](C)CC [Peptide (SEQ ID NO:38), (Lys Nle Ala Lys Ile Ala Gly)3 --NH2] (H-K[Nle]AKIAGK[Nle]AKIAGK[Nle]AKIAG-NH2)",8 µg/mL,2 µg/mL
"CC[C@H](C)[C@H](NC(=O)[C@H](CCCCNC(=N)N)NC(=O)CNC(=O)[C@H](C)NC(=O)[C@@H](NC(=O)[C@H](CCCCNC(=N)N)NC(=O)[C@H](C)NC(=O)[C@@H](NC(=O)[C@H](CCCCNC(=N)N)NC(=O)CNC(=O)[C@H](C)NC(=O)[C@@H](NC(=O)[C@H](CCCCNC(=N)N)NC(=O)[C@H](C)NC(=O)[C@@H](NC(=O)[C@H](CCCCNC(=N)N)NC(=O)CNC(=O)[C@H](C)NC(=O)[C@@H](NC(=O)[C@@H](N)CCCCNC(=N)N)[C@@H](C)CC)[C@@H](C)CC)[C@@H](C)CC)[C@@H](C)CC)[C@@H](C)CC)C(=O)N[C@@H](C)C(N)=O [Peptide (SEQ ID NO:40), (Har Ile Ala Gly Har Ile Ala)3 --NH2] (H-[hArg]IAG[hArg]IA[hArg]IAG[hArg]IA[hArg]IAG[hArg]IA-NH2)","4,8 μg/ml",4 µg/mL
